Laboratory results from PubChem BioAssay AID504706 (National Center for Advancing Translational Sciences (NCATS), 2011).
Screen size: about 320,000 compounds; about 200 (0.062%) were called active. This list was built around the results that the source calls inconclusive (neither active nor inactive); the mix of calls is not that of the screen. Calls come from the whole dose curve; as a rule, active = well fitted activation curve with a large enough effect; inconclusive = small, poorly fitted or top-dose-only effect; inactive = no such curve, though single readings can be large or run the other way. No potency is given beside an inconclusive call; the fits are too rough.

Experiment: qHTS assay for re-activators of p53 using a Luc reporter; note: nearly all actives have a fitted effect of over 45% in size; for activity change, positive = activation: % of control where 0% means no effect
Settings: H1299 p53-A138V BP100-luciferase reporter, luminescence, 24 h; series mostly up to 92.2 µM; activity change, positive = activation: at the top concentration
In short: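 H1299 (p53-null), stable ts p53-A138V + BP100-Luc; 1000 cells/well, Opti-MEM/10% FBS; cpd 4 pt, 1:5; 24 h, 37 deg C, 5% CO2; detection reagent 10 min RT; luminescence.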
Potency is the fitted concentration of half-maximal effect; tags give direction and shape of the fitted curve.

SMILES	Potency	activity change, positive = activation
Cc1cc2cc(CN(CC3CCCO3)C(=O)c3cnccn3)c(=O)[nH]c2cc1C (centres undefined)	inconclusive [activator, partial curve, poor fit]	
CN(C)c1ccc(CNc2nc3ccccc3s2)cc1	inconclusive [activator, partial curve, poor fit]	
CCCc1cc(NCc2ccccn2)n2nc(C)c(-c3ccccc3)c2n1		inactive: 20.6%
Cc1ccc(C(=O)Nc2ccccc2N2CCCCC2)cc1	inconclusive [activator, single point]	
N#C/C(=N\Nc1ccc(Cl)cc1)C(=O)c1ccccc1	inconclusive [activator, single point]	
CCN(C(=O)COC(=O)c1cccnc1Nc1ccccc1F)C1CCS(=O)(=O)C1 (centres undefined)	inconclusive [activator, full curve]	
Cc1nn(-c2ccccc2)c2nc(-c3ccco3)cc(C(=O)O)c12	inconclusive [activator, single point]	
Cc1cc(N2CCOCC2)n2ncc(-c3ccccc3Cl)c2n1	inconclusive [activator, partial curve, poor fit]	
CN1c2ccccc2C(C)(C)[C@]12C=Cc1cc(O)ccc1O2	inconclusive [activator, partial curve, poor fit]	
Cc1nn(-c2ccc(N3CCCCC3)nn2)c(C)c1CCC(=O)Nc1cc(F)ccc1F	inconclusive [activator, full curve, poor fit]	
C=CCSC1=NC(=O)/C(=C/c2cccs2)S1		inactive: 13.5%
Cc1ccc(S(=O)(=O)N(C)Cc2ccc(C(=O)N/N=C/c3ccc(OC(F)F)cc3OC(F)F)cc2)cc1		inactive: -14%
COc1ccc(N2CCN(C3CCCN(Cc4ccccc4OCCO)C3)CC2)cc1 (centres undefined)	inconclusive [activator, partial curve, poor fit]	
Oc1ccccc1-c1nc2c3ccccc3c3ccccc3c2[nH]1		inactive: 5.42%
COc1cc(CN2CCC(CO)(Cc3cccc(C(F)(F)F)c3)CC2)ccc1F		inactive: -1.01%
NS(=O)(=O)c1c(Sc2ccccc2C(=O)O)ccc2ccccc12	inconclusive [activator, partial curve, poor fit]	
CC(=O)Nc1ccc(SC[C@H](CC(C)C)N2CCN(CC(C)C)CCC2=O)cc1		inactive: -3.2%
O=C(CCSc1ccc(Cl)cc1)N1CCCCCC1	inconclusive [activator, partial curve, poor fit]	
COc1ccc(NC(=O)Nc2nnc(C(C)C)s2)cc1	inconclusive [activator, partial curve, poor fit]	
Cc1cc(NC(=O)CSc2nc3c(cc2C#N)CCCC3)no1	inconclusive [activator, partial curve, poor fit]	
O=C(CSc1nc2ccccc2n1S(=O)(=O)c1ccccc1)N1CCCC1	inconclusive [activator, full curve]	
N#Cc1ccccc1NC(=O)Nc1ccc(Cl)cc1		inactive: 2.09%
COc1ccc(-c2nnc(Nc3nc4c(OC)cccc4s3)o2)c(OC)c1	inconclusive [activator, single point]	

SMILES	Potency	activity change, positive = activation
COc1nc(N2CCOCC2)nc(C)c1[N+](=O)[O-]		inactive: -5.11%
O=C(CN1CCN(S(=O)(=O)c2ccccc2F)CC1)Nc1ccccc1C(=O)c1ccccc1		inactive: 9.87%
O=C(O)c1cc(O)ccc1N=Nc1ccccc1	inconclusive [activator, partial curve]	
O=C(CCCN1C(=O)/C(=C\c2ccco2)SC1=S)Nc1ccc2ccccc2c1	inconclusive [activator, single point]	
O=C(NCC1CCCO1)C1CCC(=O)N1Cc1ccccc1Cl (centres undefined)	inconclusive [activator, single point]	
O=C(COC(=O)/C=C/c1ccccc1[N+](=O)[O-])Nc1ccc(OCc2ccccc2)cc1	inconclusive [activator, partial curve, poor fit]	
COc1cc2ccccc2cc1C(=O)Nc1ccc(N2CCN(C)CC2)cc1	active: 20 µM	
C=CCOc1ccc(/C=C2\SC(=S)N(NS(=O)(=O)c3ccc(C)cc3)C2=O)cc1		inactive: 3.97%
COC(=O)c1ccc(NC(=O)CN(c2ccc(OC)cc2)S(C)(=O)=O)cc1	inconclusive [activator, full curve, poor fit]	
CC1CN(C(=O)COC(=O)/C=C/c2ccc(C(F)(F)F)cc2)CC(C)O1 (centres undefined)	inconclusive [activator, partial curve, poor fit]	
Cc1nc2cc3ccccc3cc2c(=O)[nH]1	inconclusive [activator, partial curve, poor fit]	
CCN1C(=O)c2cccc3c(S(=O)(=O)N4CCNCC4)ccc1c23		inactive: -7.46%
O=C(/C=C/c1ccco1)Nc1ccccn1	inconclusive [activator, partial curve, poor fit]	
CCOC(=O)/C(C#N)=C/c1ccc(N2CCN(Cc3ccccc3)CC2)cc1	inconclusive [activator, partial curve, poor fit]	
N#C/C(=C\Nc1ccccc1O)c1nc2ccccc2o1	inconclusive [activator, single point]	
CC1CN/C(=C\C(=O)c2ccc(Br)cc2)C(=O)N1 (centres undefined)	inconclusive [activator, full curve, poor fit]	
CSc1ccc(/C=N/NC(=O)c2ccc(O)cc2)cc1	inconclusive [activator, partial curve, poor fit]	
COc1ccc(C2CC(c3cccc(Cl)c3)=NN2c2ccc(S(N)(=O)=O)cc2)cc1 (centres undefined)		inactive: 1.02%
CN1CCN(c2ccccc2NC(=O)c2ccc(N3CCOCC3)c([N+](=O)[O-])c2)CC1	inconclusive [activator, single point]	
COc1ccc2cc3c(N)c(C(=O)N4CCCC4)sc3nc2c1	inconclusive [activator, partial curve, poor fit]	
COc1ccc(Nc2ncnc3c2c(C)c(C)n3CCO)cc1	inconclusive [activator, full curve, poor fit]	
Cc1nc(/C(N)=N/OC(=O)c2ccc(Cl)cc2)c(C(F)(F)F)o1		inactive: 7.44%
CCCn1c(=S)[nH]c2cc(C(=O)N(CCO)Cc3ccccc3)ccc2c1=O		inactive: 3.64%

SMILES	Potency	activity change, positive = activation
Nc1nc(CSC(=S)N2CCOCC2)nc(Nc2ccccc2)n1	inconclusive [activator, partial curve, poor fit]	
CC1=CCC(C(=O)N/N=C/c2cccs2)C(c2ccc(F)cc2)C1 (centres undefined)		inactive: -2.05%
CCCCCC(=O)Nc1ccc(-c2csc(C)n2)cc1	inconclusive [activator, partial curve, poor fit]	
CCOc1ccc(-n2nnnc2SCC(=O)c2ccccc2)cc1	inconclusive [activator, partial curve, poor fit]	
CC(C)(C)C(=O)N1CCN(c2nc3ccccc3s2)CC1	inconclusive [activator, full curve]	
CC(C)(C)NS(=O)(=O)c1cccc(S(=O)(=O)c2cccc(S(=O)(=O)NC(C)(C)C)c2)c1	inconclusive [activator, partial curve, poor fit]	
COc1ccc(Nc2nc(CN3CCOCC3)nc3sc4c(c23)CCC(C)C4)cc1OC (centres undefined)		inactive: -14.9%
O=C(CCN1C(=O)S/C(=C\C=C\c2ccccc2)C1=O)Nc1ccc(O)cc1	inconclusive [activator, partial curve, poor fit]	
Cc1nc(NC(=O)c2cccc(-c3cc4ccccc4oc3=O)c2)ccc1Br	inconclusive [activator, partial curve, poor fit]	
Cc1[nH]n(-c2ccccc2)c(=O)c1C(=O)c1ccc([N+](=O)[O-])cc1		inactive: 1.02%
Cc1ccccc1Cn1ccc(NC(=O)c2nn3cccnc3c2Cl)n1		inactive: 13.7%
O=C(Nc1nc2ccccc2[nH]1)c1ccccc1F		inactive: -35.1%
Cc1csc(NC(=O)c2ccc(S(=O)(=O)N(C)c3ccccc3)cc2)n1	inconclusive [activator, single point]	
COc1ccccc1CCCNC(=O)C1CCC(=O)N(CCN2CCOCC2)C1 (centres undefined)	inconclusive [activator, single point]	
CN(c1cccc(NC(=O)CN(c2cccc(Cl)c2)S(=O)(=O)c2ccccc2)c1)S(C)(=O)=O		inactive: -10.4%
Nc1ccccc1-c1nc2ccccc2[nH]1	inconclusive [activator, partial curve, poor fit]	
Cc1ccc(N=c2sc(C)c(C)n2C)cc1	inconclusive [activator, partial curve, poor fit]	
N#CC(=C1SC=CS1)c1nc(-c2ccccc2)cs1	inconclusive [activator, partial curve, poor fit]	
CCN1CCN(C(=O)NC2CCCCC2)CC1	inconclusive [activator, single point]	
CCSc1nc(-c2ccccc2)nc(C(Cl)Cl)n1		inactive: 7.4%
O=c1c2ccccc2cnn1CCOc1ccccc1		inactive: 0.894%
CCCS/C(N)=N/N=C/c1cc(C)ccc1O	inconclusive [activator, partial curve, poor fit]	
Cc1cc(C(=O)NC2CCC(C)CC2)c(C)o1 (centres undefined)	inconclusive [activator, full curve, poor fit]	
